Results taken from the supplement of paper PMC8728848.
Some of the results follow.

Assays:
Experiment in all cases: glycan array binding signal (z-score within array); higher = stronger binding
Settings in all cases: glycan notation: IUPAC condensed, linker removed; mutation: H262T
[1] = target: Fuc(a1-3)[Gal3S(b1-4)]GlcNAc
How it was run: (§1)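 Negative Z-scores can be read as non-binding. The Z-score is calculated within each array and then averaged across arrays of one protein sequence at different concentrations or buffers and across linkers. Arrays, 3228 in all, were curated from the Consortium for Functional Glycomics database and kept only where the protein sequence was available.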

[2] = target: Fuc(a1-3)[Gal3S(b1-4)]GlcNAc6S
How it was run: as §1

[3] = target: Fuc(a1-3)[GalNAc(b1-4)]GlcNAc
How it was run: as §1

[4] = target: Fuc(a1-3)[GalNAc(b1-4)]GlcNAc6S
How it was run: as §1

Fuc(a1-4)GlcNAc = target: Fuc(a1-4)GlcNAc
How it was run: as §1

Fuc(b1-3)GlcNAc = target: Fuc(b1-3)GlcNAc
How it was run: as §1

Gal(a1-2)Gal = target: Gal(a1-2)Gal
How it was run: as §1

Gal(a1-3)Gal = target: Gal(a1-3)Gal
How it was run: as §1

Gal(a1-3)Gal(b1-3)GlcNAc = target: Gal(a1-3)Gal(b1-3)GlcNAc
How it was run: as §1

[5] = target: Gal(a1-3)Gal(b1-3)GlcNAc(b1-2)Man
How it was run: as §1

[6] = target: Gal(a1-3)Gal(b1-3)GlcNAc(b1-2)Man(a1-3)[Gal(a1-3)Gal(b1-3)GlcNAc(b1-2)Man(a1-6)]Man(b1-4)GlcNAc(b1-4)GlcNAc
How it was run: as §1

[7] = target: Gal(a1-3)Gal(b1-3)GlcNAc(b1-3)GalNAc
How it was run: as §1

[8] = target: Gal(a1-3)Gal(b1-3)GlcNAc(b1-6)GalNAc
How it was run: as §1

[9] = target: Gal(a1-3)Gal(b1-3)[Fuc(a1-4)]GlcNAc(b1-2)Man(a1-3)[Gal(a1-3)Gal(b1-3)[Fuc(a1-4)]GlcNAc(b1-2)Man(a1-6)]Man(b1-4)GlcNAc(b1-4)GlcNAc
How it was run: as §1

Gal(a1-3)Gal(b1-4)Glc = target: Gal(a1-3)Gal(b1-4)Glc
How it was run: as §1

Gal(a1-3)Gal(b1-4)GlcNAc = target: Gal(a1-3)Gal(b1-4)GlcNAc
How it was run: as §1

[10] = target: Gal(a1-3)Gal(b1-4)GlcNAc(b1-2)Man
How it was run: as §1

[11] = target: Gal(a1-3)Gal(b1-4)GlcNAc(b1-2)Man(a1-3)[Gal(a1-3)Gal(b1-4)GlcNAc(b1-2)Man(a1-6)]Man(b1-4)GlcNAc(b1-4)GlcNAc
How it was run: as §1

[12] = target: Gal(a1-3)Gal(b1-4)GlcNAc(b1-3)GalNAc
How it was run: as §1

[13] = target: Gal(a1-3)Gal(b1-4)GlcNAc(b1-6)GalNAc
How it was run: as §1

[14] = target: Gal(a1-3)Gal(b1-4)[Fuc(a1-3)]GlcNAc
How it was run: as §1

[15] = target: Gal(a1-3)Gal(b1-4)[Fuc(a1-3)]GlcNAc(b1-2)Man(a1-3)[Gal(a1-3)Gal(b1-4)[Fuc(a1-3)]GlcNAc(b1-2)Man(a1-6)]Man(b1-4)GlcNAc(b1-4)GlcNAc
How it was run: as §1

Gal(a1-3)GalNAc = target: Gal(a1-3)GalNAc
How it was run: as §1

[16] = target: Gal(a1-3)[Gal(a1-4)]Gal(b1-4)GlcNAc
How it was run: as §1

[17] = target: Gal(a1-4)Gal(b1-3)GlcNAc(b1-2)Man(a1-3)[Gal(a1-4)Gal(b1-3)GlcNAc(b1-2)Man(a1-6)]Man(b1-4)GlcNAc(b1-4)GlcNAc
How it was run: as §1

Gal(a1-4)Gal(b1-4)Glc = target: Gal(a1-4)Gal(b1-4)Glc
How it was run: as §1

Gal(a1-4)Gal(b1-4)GlcNAc = target: Gal(a1-4)Gal(b1-4)GlcNAc
How it was run: as §1

[18] = target: Gal(a1-4)Gal(b1-4)GlcNAc(b1-2)Man(a1-3)[Gal(a1-4)Gal(b1-4)GlcNAc(b1-2)Man(a1-6)]Man(b1-4)GlcNAc(b1-4)GlcNAc
How it was run: as §1

[19] = target: Gal(a1-4)Gal(b1-4)GlcNAc(b1-3)Gal(b1-4)Glc
How it was run: as §1

Gal(a1-4)GlcNAc = target: Gal(a1-4)GlcNAc
How it was run: as §1

Gal(a1-6)Glc = target: Gal(a1-6)Glc
How it was run: as §1

Gal(b1-2)Gal = target: Gal(b1-2)Gal
How it was run: as §1

Gal(b1-3)Gal = target: Gal(b1-3)Gal
How it was run: as §1

Gal(b1-3)Gal(b1-4)GlcNAc = target: Gal(b1-3)Gal(b1-4)GlcNAc
How it was run: as §1

Gal(b1-3)GalNAc = target: Gal(b1-3)GalNAc
How it was run: as §1

[20] = target: Gal(b1-3)GalNAc(a1-3)[Fuc(a1-2)]Gal(b1-4)Glc
How it was run: as §1

[21] = target: Gal(b1-3)GalNAc(a1-3)[Fuc(a1-2)]Gal(b1-4)GlcNAc
How it was run: as §1

B1: MGL6A (Homo sapiens) (protein)
chain: MTRTYENFQYLENKVKVQGFKNGPLPLQSLLQRLCSGPCHLLLSLGLGLLLLVIICVVGFQNSKFQRDLVTLRTDFSNFTSNTVAEIQALTSQGSSLEETIASLKAEVEGFKQERQAVHSEMLLRVQQLVQDLKKLTCQVATLNNNGEEASTEGTCCPVNWVEHQDSCYWFSHSGMSWAEAEKYCQLKNAHLVVINSREEQNFVQKYLGSAYTWMGLSDPEGAWKWVDGTDYATGFQNWKPGQPDDWQGHGLGGGEDCAHFTPDGRWNDDVCQRPYHWVCEAGLGQTSQESH
**Q.** With B1 as the binder, how does the “glycan array binding signal (z-score)” value [1] read?
**A.** The value was -0.173.

**Q.** And the “glycan array binding signal (z-score)” value [2]?
**A.** The value was -0.177.

**Q.** What about the “glycan array binding signal (z-score)” value [3] of the same binder?
**A.** The value was 0.065.

**Q.** What about the “glycan array binding signal (z-score)” value [4] of the same binder?
**A.** Its value is -0.069.

**Q.** And the “glycan array binding signal (z-score)” value (Fuc(a1-4)GlcNAc)?
**A.** Its value is -0.173.

**Q.** And the “glycan array binding signal (z-score)” value (Fuc(b1-3)GlcNAc)?
**A.** Its value is -0.176.

**Q.** What about the “glycan array binding signal (z-score)” value (Gal(a1-2)Gal) of the same binder?
**A.** The value was -0.176.

**Q.** And the “glycan array binding signal (z-score)” value (Gal(a1-3)Gal)?
**A.** Its value is -0.171.

**Q.** What about the “glycan array binding signal (z-score)” value (Gal(a1-3)Gal(b1-3)GlcNAc) of the same binder?
**A.** Its value is -0.165.

**Q.** And the “glycan array binding signal (z-score)” value [5]?
**A.** Its value is -0.175.

**Q.** And the “glycan array binding signal (z-score)” value [6]?
**A.** The value was -0.167.

**Q.** And the “glycan array binding signal (z-score)” value [7]?
**A.** Its value is -0.173.

**Q.** What about the “glycan array binding signal (z-score)” value [8] of the same binder?
**A.** Its value is 7.68.

**Q.** And the “glycan array binding signal (z-score)” value [9]?
**A.** The value was -0.167.

**Q.** What about the “glycan array binding signal (z-score)” value (Gal(a1-3)Gal(b1-4)Glc) of the same binder?
**A.** Its value is -0.172.

**Q.** And the “glycan array binding signal (z-score)” value (Gal(a1-3)Gal(b1-4)GlcNAc)?
**A.** The value was -0.172.

**Q.** What about the “glycan array binding signal (z-score)” value [10] of the same binder?
**A.** The value was -0.18.

**Q.** And the “glycan array binding signal (z-score)” value [11]?
**A.** Its value is -0.173.

**Q.** What about the “glycan array binding signal (z-score)” value [12] of the same binder?
**A.** Its value is -0.175.

**Q.** And the “glycan array binding signal (z-score)” value [13]?
**A.** The value was 7.07.

**Q.** And the “glycan array binding signal (z-score)” value [14]?
**A.** The value was -0.18.

**Q.** What about the “glycan array binding signal (z-score)” value [15] of the same binder?
**A.** The value was -0.171.

**Q.** And the “glycan array binding signal (z-score)” value (Gal(a1-3)GalNAc)?
**A.** Its value is -0.167.

**Q.** What about the “glycan array binding signal (z-score)” value [16] of the same binder?
**A.** The value was -0.163.

**Q.** What about the “glycan array binding signal (z-score)” value [17] of the same binder?
**A.** Its value is -0.17.

**Q.** What about the “glycan array binding signal (z-score)” value (Gal(a1-4)Gal(b1-4)Glc) of the same binder?
**A.** The value was -0.154.

**Q.** What about the “glycan array binding signal (z-score)” value (Gal(a1-4)Gal(b1-4)GlcNAc) of the same binder?
**A.** The value was -0.163.

**Q.** And the “glycan array binding signal (z-score)” value [18]?
**A.** Its value is -0.168.

**Q.** What about the “glycan array binding signal (z-score)” value [19] of the same binder?
**A.** The value was -0.173.

**Q.** And the “glycan array binding signal (z-score)” value (Gal(a1-4)GlcNAc)?
**A.** The value was -0.185.

**Q.** What about the “glycan array binding signal (z-score)” value (Gal(a1-6)Glc) of the same binder?
**A.** Its value is -0.172.

**Q.** And the “glycan array binding signal (z-score)” value (Gal(b1-2)Gal)?
**A.** Its value is -0.182.

**Q.** What about the “glycan array binding signal (z-score)” value (Gal(b1-3)Gal) of the same binder?
**A.** The value was -0.169.

**Q.** What about the “glycan array binding signal (z-score)” value (Gal(b1-3)Gal(b1-4)GlcNAc) of the same binder?
**A.** The value was -0.175.

**Q.** And the “glycan array binding signal (z-score)” value (Gal(b1-3)GalNAc)?
**A.** The value was -0.165.

**Q.** And the “glycan array binding signal (z-score)” value [20]?
**A.** Its value is -0.166.

**Q.** What about the “glycan array binding signal (z-score)” value [21] of the same binder?
**A.** Its value is -0.176.
